The whole screen tested about 340,000 compounds, of which about 12,000 (3.5%) were called active. The shares of active, inactive and inconclusive entries below differ from those in the screen. Calls follow the shape of the dose curve; as a rule, active = well fitted inhibition curve with a large enough effect; inconclusive = small, poorly fitted or top-dose-only effect, or another doubt; inactive = no such curve, though single readings can be large or run the other way. Potencies of inconclusive entries are left out as doubtful fits.
assay: qHTS Assay for Inhibitors of Hepatitis C Virus (HCV); settings: Huh7.5.1 HCVcc-Cre (HCVcc is cell-culture hepatitis C virus) infection, luciferase reporter, 44 h; series mostly up to 41.8 µM
Outline: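 Cells (1,000/well) were plated 4 h before compound, then infected with HCVcc-Cre virus (~0.5 moi). After 44 h further culture, infection was read as luciferase luminescence following a 15 min substrate incubation at room temperature.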
Potency is read from the fitted curve at half-maximal effect; tags tell the direction and shape of the fitted curve.

SMILES	Potency
O=C(Nc1cccc([N+](=O)[O-])c1)N1CCN(c2ccccc2)CC1	inconclusive [inhibitor, single point]
CCN(CC)C(=O)CSc1nc(O)c(Cc2ccccc2)c(=O)n1-c1ccc(C)cc1	inactive
COCCNC(=O)N1[C@H]2CC[C@@H]1C(C(=O)OC)=C(c1ccc(OC(F)(F)F)cc1)C2	inconclusive [inhibitor, single point]
CCOc1cccc(NC(=O)c2ccc(S(=O)(=O)N(C)C)cc2)c1	inconclusive [inhibitor, partial curve]
Cc1cccc(N2CCN(CC(=O)NCC3CCCCC3)CC2)c1C	inconclusive [inhibitor, full curve]
C[C@H](CO)N1C[C@H](C)[C@@H](CN(C)S(=O)(=O)c2ccc(F)cc2)Oc2ccc(NC(=O)Nc3ccc4c(c3)OCO4)cc2C1=O	inconclusive [inhibitor, partial curve]
CCOC(=O)c1ccoc1CN1CCN(S(=O)(=O)c2ccc(C)c(C)c2)CC1	inconclusive [inhibitor, single point]
COc1ccc(C(=O)NC(=S)Nc2ccc(CN3CCOCC3)cc2)cc1	inactive
CC(C)(C)C1CCC(=NNC(=O)CN(c2ccccc2)S(C)(=O)=O)CC1 (stereo not given)	inactive
CCN1CCCC1CN(Cc1cc2ccc(C)cc2[nH]c1=O)C(=S)Nc1ccccc1OC (stereo not given)	inactive
Cc1nn(C)cc1C1Nc2ccccc2C(=O)N1O (stereo not given)	inactive
COC(=O)Nc1nnc(-c2ccco2)s1	inactive
Cc1cc(C)c(-c2csc(NC(=O)C3=COCCO3)n2)cc1C	inconclusive [inhibitor, partial curve]
Cn1c(=O)c([N+](=O)[O-])c(NCc2ccccc2)c2ccccc21	inactive
CC(C)(C)c1cc(C(=S)N2CCCC2)cc(C(C)(C)C)c1O	inconclusive [inhibitor, single point]
CCC(=O)Nc1cccc(NC(=O)COc2ccc(OC)cc2)c1	inconclusive [inhibitor, single point]
CN(C)CCCNc1oc(-c2ccc(Cl)cc2)nc1C#N	inconclusive [inhibitor, partial curve]
N/C(=N\OC(=O)c1ccc(Cl)cc1)c1cccnc1	inconclusive [inhibitor, single point]
CCC1=Nc2cc(C(=O)NCCN3CCCC3)ccc2Sc2ccc(C)cc21	inconclusive [inhibitor, single point]
Cc1cc(C=C2C(=O)c3ccccc3C2=O)c(C)n1-c1ccc(Cl)cc1	inactive

From PubChem BioAssay AID651820 (National Center for Advancing Translational Sciences (NCATS), 2012)
